Test results published in publication PMC9236144 (Molecular Biology of the Cell, 2022).

Molecular target: T1, Bud6C (Bud6 residues 550-789) (S. cerevisiae, UniProt P41697 550-788)
T1 sequence (looked up): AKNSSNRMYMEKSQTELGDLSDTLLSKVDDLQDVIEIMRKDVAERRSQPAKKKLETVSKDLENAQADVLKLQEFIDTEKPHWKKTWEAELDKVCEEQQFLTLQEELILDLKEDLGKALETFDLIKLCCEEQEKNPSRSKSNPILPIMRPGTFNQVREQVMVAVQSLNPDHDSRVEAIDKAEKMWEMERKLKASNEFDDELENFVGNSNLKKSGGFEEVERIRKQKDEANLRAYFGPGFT
Assay: fluorescence polarisation

- binding result: binds
B1: Bnr1-LC (Bnr1 […], with the αT helix), Alexa 488-labeled (domain or fragment)
chain: not shown
modifications: Alexa 488 label (site not stated)
